Earlier results on 21 sequences are cited in publication PMC11006913.

Some of the results follow.

Common to all, as to conditions: PBM; conditions not shown; double strand, one strand shown; scale: upbm affinity estimate (log intensity, higher = more binding, comparable within an allelic series)
For series [1], the target named is ARX (Homo sapiens) (UniProt Q96QS3).
Series [2] addresses ARX L343Q (Homo sapiens) (UniProt Q96QS3).
Series [3] has as its target ARX P353L (Homo sapiens) (UniProt Q96QS3).
Series [4] concerns the target ARX P353R (Homo sapiens) (UniProt Q96QS3).
Series [5] deals with ARX R332H (Homo sapiens) (UniProt Q96QS3).
The target of series [6] is ARX T333N (Homo sapiens) (UniProt Q96QS3).

As for GCGGGTCC [8-mer GCGGGTCC], the binding signal was 10.2 in series [1]; 10.1 in series [2]; 10.2 in series [3]; 10.1 in series [4]; 10.1 in series [5]; 10.1 in series [6].

Take AGGCGGCA [8-mer AGGCGGCA]: the binding signal in series [1] was 10.3; in series [2], 10.1; in series [3], 10.3; in series [4], 10.1; in series [5] it was 10.1; in series [6], 10.3.

As for GCTTGTTA [8-mer GCTTGTTA], the binding signal in series [1] is 11.2; in series [2] it was 10.5; in series [3], 11.4; in series [4], 10.5; in series [5], 10.6; in series [6], 10.8.

AGCTCGGG [8-mer AGCTCGGG]: the binding signal in series [1] is 10.3; in series [2] it was 10.2; in series [3] it was 10.3; in series [4], 10.1; in series [5], 10.2; in series [6], 10.2.

Turning to AGGCGGGG [8-mer AGGCGGGG], the binding signal in series [1] was 10.2; in series [2], 10.1; in series [3], 10; in series [4], 10; in series [5], 10.1; in series [6], 10.3.

CGTAATCA [8-mer CGTAATCA]: the binding signal in series [1] is 12; in series [2], 10.7; in series [3], 11.6; in series [4], 10.8; in series [5], 10.9.

In the case of CGAATTAG [8-mer CGAATTAG], the binding signal in series [1] was 12.7; in series [2], 10.7; in series [3] it was 12.3; in series [4] it was 10.6; in series [5] it was 10.9; in series [6], 11.6.

Consider CAGTTATC [8-mer CAGTTATC], for which the binding signal in series [1] was 11.2; in series [2], 10.7; in series [3] it was 11.1; in series [4], 10.7; in series [5], 10.7.

Consider GGAAATGA [8-mer GGAAATGA], for which the binding signal in series [1] was 11.

For the sequence CGATTAGC [8-mer CGATTAGC], the binding signal in series [1] was 11.9; in series [2], 10.6; in series [3] it was 11.8; in series [4], 10.5; in series [5] it was 10.6.

As to CGGGAAAG [8-mer CGGGAAAG], the binding signal in series [1] was 10.3; in series [2], 10.2; in series [3], 10.2; in series [4], 10.2; in series [5], 10.2; in series [6], 10.3.

As to CTTAATGC [8-mer CTTAATGC], the binding signal in series [1] is 11.5; in series [2], 10.7; in series [3], 11.2; in series [4], 10.6; in series [5], 10.7.

On to GCCCCTCC [8-mer GCCCCTCC], for which the binding signal in series [1] was 10.1; in series [2], 10.2; in series [3] it was 10.2; in series [4] it was 10; in series [5] it was 10.2; in series [6] it was 10.3.

In the case of TTAACGAA [8-mer TTAACGAA], the binding signal was 11.4 in series [1]; 10.5 in series [2]; 11.3 in series [3]; 10.4 in series [4]; 10.5 in series [5].

For the sequence AACAAATT [8-mer AACAAATT], the binding signal in series [1] was 11.9; in series [2], 10.8; in series [3] it was 11.5; in series [4] it was 10.7; in series [5], 10.9; in series [6], 11.3.

As for ATGATACA [8-mer ATGATACA], the binding signal in series [1] was 11.

Take CGCCGCTA [8-mer CGCCGCTA]: the binding signal is 10.2 in series [1]; 10.1 in series [2]; 10.2 in series [3]; 10.1 in series [4]; 10.1 in series [5]; 10.4 in series [6].

With CCGCCCGG [8-mer CCGCCCGG], the binding signal in series [1] is 9.97; in series [2], 10; in series [3] it was 10.1; in series [4], 9.87; in series [5], 10; in series [6] it was 10.1.

For AGAGTAAT [8-mer AGAGTAAT], the binding signal in series [1] was 11.5; in series [2], 10.7; in series [3], 11.3; in series [4] it was 10.7; in series [5], 10.9.

As for GCCGGCGC [8-mer GCCGGCGC], the binding signal in series [1] is 10.1; in series [2], 9.91; in series [3], 9.97; in series [4], 9.85; in series [5] it was 9.9; in series [6], 9.97.

As for AAATTGTT [8-mer AAATTGTT], the binding signal in series [1] is 11.4; in series [2], 10.6; in series [3], 11.1; in series [4], 10.7; in series [5], 10.8.
